# Measured values taken from PubChem BioAssay (NCATS).
# Where “and” joins values, the source holds several entries; their conditions need not be identical. Equal entries are not always repeated. The shares of active, inactive and inconclusive entries below differ from those in the screen. Potencies beside an inconclusive call are fits to weak or partial responses and may not hold up. Calls of active or inactive are those of the source. The call rests on the fitted dose curve; in most records, active means well fitted cell-killing curve with a large enough effect; inconclusive means small, poorly fitted or top-dose-only effect; inactive means flat fitted curve, though single readings scatter.
# Assay: qHTS of pediatric cancer cell lines to identify multiple opportunities for drug repurposing: Primary screen for BT-12 cells (AID 1347101); further: nearly all actives have a fitted effect of over 25% in size
# Settings: BT-12 viability, CellTiter-Glo luminescence, 48 h; series mostly up to 57.3 µM
# Outline: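 Cells (500-1,000/well) rested 5 h, then received compounds for 48 h; metabolically active cells were measured by CellTiter-Glo luminescence. Final concentrations spanned up to 46 µM (MIPE, 11-point) or 0.59 nM-46 µM (NPC, 8-point) in primary screens, 11-point in follow-ups.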
# Potency means the concentration at half of the fitted maximal effect; tags describe the fitted curve by direction and shape.
row,SMILES,Potency
1,Cc1cnc(C(=O)NCCc2ccc(S(=O)(=O)NC(=O)NC3CCCCC3)cc2)cn1,"inconclusive: 21.7 µM [cytotoxic, partial curve]"
2,N[C@H]1CN(c2c(F)cc3c(=O)c(C(=O)O)cn(C4C[C@@H]4F)c3c2Cl)CC12CC2 (some centres undefined),inactive
3,C=C[C@@H]1CN2CCC1C[C@@H]2C(O)c1ccnc2ccc(OC)cc12 (some centres undefined),inactive
4,CC(CCc1ccc(O)cc1)NCCc1ccc(O)c(O)c1 (centres undefined),"inconclusive: 27.3 µM [cytotoxic, single point] and inconclusive: 17.4 µM [cytotoxic, partial curve]"
5,Cc1cc2c(cc1C1(c3ccc(C(=O)O)cn3)CC1)C(C)(C)CCC2(C)C,"inconclusive: 3.06 µM [cytotoxic, partial curve, poor fit]"
6,N#Cc1ccc(Oc2ccc3c(c2)COB3O)cc1,"inconclusive: 30.6 µM [cytotoxic, single point]"
7,CN1C(=O)C[C@H](C(=O)N[C@@H](Cc2cnc[nH]2)C(=O)N2CCC[C@@H]2C(N)=O)NC1=O,"inconclusive: 17.2 µM [cytotoxic, partial curve]"
8,NC(=O)c1nnn(Cc2cc(Cl)c(C(=O)c3ccc(Cl)cc3)c(Cl)c2)c1N,"inconclusive: 24.3 µM [cytotoxic, partial curve]"
9,COc1ccccc1N1CCN(CC(O)COc2cccc3ccccc23)CC1 (centres undefined),"inconclusive: 24.6 µM [cytotoxic, partial curve, poor fit]"
10,O=C(C1CC1)N1CC[C@@H](Cn2c(-c3ccc(-c4ccc5occc5c4)cc3)nc3cnccc32)C1,"inconclusive: 27.3 µM [cytotoxic, single point]"
11,Clc1cc(Cl)cc(CNc2ncncc2-c2ccc3c(c2)OCO3)c1,"inconclusive: 43.2 µM [cytotoxic, single point]"
12,COc1ccc(-c2oc3c(CC=C(C)C)c(OC4O[C@H](CO)[C@@H](O)[C@H](O)[C@@H]4O)cc(O)c3c(=O)c2OC2O[C@@H](C)[C@H](O)[C@@H](O)[C@@H]2O)cc1 (some centres undefined),"inconclusive: 17.2 µM [cytotoxic, partial curve, poor fit]"
13,CCCCC(C=O)NC(=O)C(CC(C)C)NC(=O)OCc1ccccc1 (centres undefined),"inconclusive: 24.3 µM [cytotoxic, partial curve, poor fit]"
14,COc1ccc2nc3cc(Cl)ccc3c(Nc3cc(CN4CCCC4)c(O)c(CN4CCCC4)c3)c2n1,"inconclusive: 30.6 µM [cytotoxic, single point]"
15,O=C(Nc1cc(Cl)cc2c1[nH]c1cnccc12)c1cccnc1,"inconclusive: 9.68 µM [cytotoxic, partial curve, poor fit]"
16,C[C@H]1c2cccc(O)c2C(O)=C2C(=O)[C@]3(O)C(O)=C(C(N)=O)C(=O)[C@@H](N(C)C)[C@@H]3[C@@H](O)[C@@H]21,"inconclusive: 21.9 µM [cytotoxic, single point]"
17,CO[C@H]1C[C@@H]2CC[C@@H](C)[C@@](O)(O2)C(=O)C(=O)N2CCCC[C@@H]2C(=O)O[C@H]([C@@H](C)C[C@@H]2CC[C@H](O)[C@H](OC)C2)CC(=O)[C@H](C)C=C(C)[C@@H](O)[C@@H](OC)C(=O)[C@H](C)C[C@H](C)C=CC=CC=C1C,active: 9.68 µM
18,Nc1ccn([C@@H]2O[C@H](CO)[C@@H](O)[C@H]2O)c(=O)n1,"inconclusive: 0.685 µM [cytotoxic, partial curve]"
19,O=C(O)CCC1CCC(c2cc(F)ccc2F)(S(=O)(=O)c2ccc(Cl)cc2)CC1 (centres undefined),"inconclusive: 6.11 µM [cytotoxic, partial curve]"
20,CC(C)=CC[C@@H](O)C1=CC(=O)c2c(O)ccc(O)c2C1=O,active: 17.2 µM
21,COC1CCC(N(C(=O)C2CCC(C)CC2)c2cc(C3=CCCCC3)sc2C(=O)O)CC1 (centres undefined),inactive
22,CCOc1ccc(Nc2nc(-c3c(C)nc4ccccn34)cs2)cc1,"inconclusive: 0.0061 µM [cytotoxic, full curve]"
23,Nc1ncnc2nc(-c3ccc(N4CCOCC4)nc3)cc(-c3cccc(Br)c3)c12,"inconclusive: 19.3 µM [cytotoxic, partial curve]"
24,COc1cc(F)c(F)c(Nc2ccc(I)cc2F)c1NS(=O)(=O)C1(C[C@H](O)CO)CC1,"inconclusive: 15.3 µM [cytotoxic, partial curve, poor fit]"
